# Source: PubChem BioAssay (NCATS)
# The list shows a part of the results. These are further read-outs of the screen, such as a control signal, another cell line or another target. No call is given for them. Compounds called inactive in the main read-out are mostly missing here. Potencies come from curve fits of mixed quality, noted in brackets.
# Experiment: Cell-based coincidence reporter assay to measure PMP22 gene transcription in S16 Pmp22-F2sN cells - Confirmatory screen (AID 1508646)
# Conditions: S16 Schwann cells Pmp22-F2sN, dual luciferase, 24 h
# Summary of the method: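 Coincidence reporter read as sequential FLuc then NLuc luminescence (Nano-Glo Dual-Luciferase, 10 min each). Engineered S16 Pmp22-F2sN Schwann cells, 500-1,000 per well in DMEM/10% FBS, were exposed to compounds for 24 h, 37C.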
# [1] = measured here: FLuc reporter channel
# [2] = measured here: NLuc reporter channel
# Tags give direction and shape of the fitted curve.
SMILES,AC50 [1],AC50 [2]
CCC(C)n1c(=N)c(C(=O)NC2CCCC2)cc2c(=O)n3ccccc3nc21 (configuration not stated),"19.3 µM [falling, partial curve, poor fit]",
Cc1c(C(=O)Nc2ccc(F)cc2)oc2ccc(S(=O)(=O)N3CCCCCC3)cc12,"10.9 µM [falling, full curve, poor fit]",
COc1ccc(NC(=O)Cn2c(=O)n(Cc3ccccc3Cl)c(=O)c3cc(OC)c(OC)cc32)cc1OC,,"9.68 µM [falling, single point]"
CCCCCCOc1ccc(/C=C/C(=O)Nc2sc3c(c2C(=O)OC)CCC3)cc1OC,"30.6 µM [rising, single point]",
Cc1c(C(=O)OC2CCCCC2)[nH]c2c1C(=O)CC(c1ccccc1Cl)C2 (configuration not stated),"15.3 µM [falling, partial curve, poor fit]",
COc1ccc(NC(=O)Cn2c(=O)cc(C)c3c(C)nn(C)c32)cc1,,"6.85 µM [falling, partial curve]"
Cc1ccc(F)cc1NC(=O)CSc1nc(-c2cccs2)cc(C(F)(F)F)n1,,"34.3 µM [falling, partial curve, poor fit]"
CC(Oc1ccccc1)C(=O)Nc1ccccc1C(=O)OCc1cc(=O)n2nc(C3CC3)sc2n1 (configuration not stated),,"19.3 µM [falling, partial curve, poor fit]"
Cn1c(-c2cccc(Br)c2)cnc1NCc1cccc(F)c1,,"24.3 µM [falling, partial curve, poor fit]"
Cc1cccc(N2CCN(C(=O)C3CCN(S(=O)(=O)c4ccc5c(c4)oc(=O)n5C)CC3)CC2)c1C,,"2.73 µM [falling, partial curve, poor fit]"
COc1cc(C2C(C(=O)OC(C)C)=C(C)N=C3SCCC(=O)N32)ccc1OCc1ccccc1 (configuration not stated),,"4.32 µM [falling, single point]"
CCCCN(Cc1cc2ccccc2[nH]c1=O)C(=O)c1cccc(Cl)c1,,"8.62 µM [rising, partial curve, poor fit]"
CCC(C)NC(=O)c1cn(CC)c2ccc(S(=O)(=O)N3CCc4ccccc4C3)cc2c1=O (configuration not stated),"17.2 µM [falling, partial curve, poor fit]",
CCc1ccc(S(=O)(=O)c2cn(Cc3ccccc3F)c3cc(OC)c(OC)cc3c2=O)cc1,"3.06 µM [falling, partial curve, poor fit]",
N#CC1=C2SCN(C3CCCCC3)CN2C(=O)CC1c1c(F)cccc1Cl (configuration not stated),,"43.2 µM [falling, single point]"
CCOc1ccc(-c2nc(CSCC(=O)NCCc3ccccc3)c(C)o2)cc1,"1.93 µM [falling, full curve]",
Cn1c(=O)n(-c2ccc3c(c2)OCO3)c2nc(-c3ccc(Cl)cc3)nc(C(N)=O)c21,,"3.85 µM [falling, full curve, poor fit]"
COc1ccccc1CNC(=O)Cn1c(=O)oc2cc(S(=O)(=O)N3CCC(C)CC3)ccc21,"13.7 µM [falling, full curve, poor fit]",
CC(=O)N1c2c(cc(Br)cc2S(=O)(=O)Nc2ccc(OC(F)(F)F)cc2)CC1C (configuration not stated),,"27.3 µM [falling, partial curve, poor fit]"
CCc1cccc(C)c1NC(=O)c1nc2ccccc2nc1N1CCCCC1,,"43.2 µM [falling, single point]"
COc1ccc2nc(NC(=O)c3nc(S(=O)(=O)Cc4ccc(C)cc4)ncc3Cl)sc2c1,,"30.6 µM [rising, partial curve, poor fit]"
CCC1=Nc2cc(C(=O)NCc3ccccc3Cl)ccc2Sc2ccc(C)cc21,,"13.7 µM [falling, full curve]"
COc1ccc(-c2noc(CSc3nnc(-c4ccncc4)n3-c3cccc(C)c3)n2)cc1OC,"4.32 µM [falling, full curve, poor fit]",
Cc1oc(-c2ccc(Cl)cc2)nc1CN1CCCC(C(=O)NCCc2ccccc2)C1 (configuration not stated),,"43.2 µM [falling, single point]"
Oc1ccc(NCc2ccccc2OCc2ccccc2F)cc1,,"24.3 µM [falling, partial curve]"
Cc1c(Cl)cccc1N1C(N)=C(C#N)C(c2cc(CN3CCOCC3)cs2)C2=C1CCCC2=O (configuration not stated),"19.3 µM [falling, partial curve]",
O=C(NCCSc1c[nH]c2ccccc12)c1ccccc1Cl,,"15.3 µM [rising, partial curve, poor fit]"
